PubChem BioAssay AID1948 (National Center for Advancing Translational Sciences (NCATS), 2009)
Screen size: about 110,000 compounds; about 20 (0.02%) were called active. Inconclusive results, whose numbers are uncertain, are shown with a selection of clear calls. Calls follow the shape of the dose curve; as a rule, active = well fitted activation curve with a large enough effect; inconclusive = small, poorly fitted or top-dose-only effect; inactive = no such curve, though single readings can be large or run the other way. No potency is given beside an inconclusive call; the fits are too rough.

experiment: qHTS Assay for Compounds that Induce Erasure of Genomic Imprints; conditions: mouse ES Peg3-LacZ reporter, beta-gal luminescence, 40 h; activity change, positive = activation: at 10.9 µM (top of the series) unless noted;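 as to activity change, positive = activation: 0% = negative control wells on the plate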
Description: qHTS Assay for Compounds that Induce Erasure of Genomic Imprints NIH Chemical Genomics Center [NCGC] NIH Molecular Libraries Screening Centers Network [MLSCN] Assay Submitter (PI): JEFFRIES, SEAN, NCGC, University of Cambridge NCGC Peg3 Imprinting Assay Overview Genomic imprinting is the epigenetic process whereby genes are expressed in a parent of origin fashion. […] Unlike some forms of epigenetic silencing that can be overcome by overexpression of transcription factors, genomic imprinting stably represses the expression of one allele despite potentially high levels of expression from the other allele. […] During mouse embryonic day 11.5 imprints are erased in PGCs so that sex specific imprints can be reestablished during gametogenesis. Embryonic germ (EG) cells can be derived from developing PGCs at embryonic day 11.5 and these cells often lack genomic imprints. […] Embryonic stem (ES) cells are a cell type similar to EG cells in phenotype and transcriptional profile, yet ES cells maintain genomic imprints. This similarity between ES and EG cells prompted us to use ES cells to look for factors which could induce imprint erasure. To investigate the stability of genomic imprinting, ES cells were derived from mice with an insertion of a LacZ-Neomycin reporter construct in the Peg3 locus. Peg3 is an imprinted locus where gene expression is restricted to the paternal allele. […] Using LacZ expression we are able to monitor the state of the Peg3 imprint. In order to dissect the mechanisms involved in imprint erasure using a forward chemical genetics approach we developed a cell based phenotype assay using an endogenous silence imprinted locus. This assay utilizes maternally inherited Peg3LacZ-Neo ES cells by monitoring the LacZ expression from the normally silent Peg3 allele. To facilitate screening, high-density feeder-free ES cell culture has been optimized so that ES cells can be grown in 1536 for over four days without feeding or washes. The assay uses a luminescence based read out for LacZ activity and is a homogenous assay optimal for HTS.
NCGC Peg3 Imprinting Assay Protocol Summary ES cell lines were derived from blastocysts taken from Peg3LacZ-Neo x129 matings. Lines were sexed and genotyped for the Peg3LacZ-Neo allele. Female cells carrying the reporter allele were used in this study. Cells were derived on a layer of mouse embryonic fibroblasts and passaged multiple times before switching to feeder free culture. Cells were maintained feeder free on gelatin coated dishes in DMEM/F12 media supplemented with 15% FBS, 2mM L-glutamine, 100 units/ml penicillin, 100ug/ml streptomycin, 0.1mM MEM nonessential amino acids, 1mM sodium pyruvate, 0.1% sodium bicarbonate, 0.1mM 2-Mercaptoethanol, and 400 units/ml leukemia inhibitory factor (LIF) at 37C with 5% CO2. The assay was performed in 1536-well format. A single luminescence read was taken at the end of the assay and the data was normalized by plate to internal negative controls. Maximum efficacy and AC50 values were calculated from dose-response data using the standard Hill equation. 1536 well plates were filled with 0.5ul of 0.1% gelatin per well, spun down and incubated for at least 30 min at 37C. The ES cells were then trypsini Peg3 1536-well assay protocol: (1)Plate 0.5ul/well 0.1% gelatin in white tissue culture treated 1536-well plates, spin and incubate at 37C for at least 30 min. (2)Add 5ul/well (300 cells) of ES cell suspension from freshly trypsinized cells and incubate at 37C, 5% CO2 for 40 hours. (3)Add 5ul/well of freshly prepared BetaGlo solution and incubate at room temperature for 5 minutes. (4)Read luminescence on the ViewLux plate reader. Keywords Genomic Imprinting, Germ Cells, Embryonic Stem Cell, DNA Methylation, Peg3, qHTS, NIH roadmap, NCGC
Potency is read from the fitted curve at half-maximal effect; tags tell the direction and shape of the fitted curve.

Compound	Potency	activity change, positive = activation
CC1Cc2cc(S(=O)(=O)CCC(=O)Nc3ccc(Cl)cc3F)ccc2N1C(=O)C1CC1 (centres undefined)	inactive	–
COc1ccc(CCC(=O)NCc2nc3cccnc3n2Cc2ccccc2)cc1	inactive	–
O=C(NCc1ccc2c(c1)OCO2)C1CCN(c2ccc(S(=O)(=O)N3CCCC3)cc2)CC1	inactive	–
Cc1cccc(C(=O)N(Cc2ccco2)Cc2ccccc2F)c1	–	inconclusive: 41.3% [activator]
Cc1ccc(-c2noc(-c3ccc(N4CCCCC4C)c([N+](=O)[O-])c3)n2)cc1 (centres undefined)	–	inconclusive: 41.9% [activator]
COc1cccc(C(=O)Nc2cccc(OCc3cc(=O)n4cc(C)ccc4n3)c2)c1	–	inconclusive: 43.4% [activator]
Cc1cccc(-c2nc(CSc3nncn4c3cc3oc(C)cc34)c(C)o2)c1	–	inconclusive: 43% [activator]
COc1cc(C2C3C(C)N(C)C(=O)N(C)C3N(C)C(=O)N2C)ccc1O (centres undefined)	inconclusive [activator, single point]	–
CC(C)c1ccc(-c2nnc3n(CCc4ccccc4)c(=O)c4ccccc4n23)cc1	inactive	–
Cc1ccc2nc(NC(=O)CNS(=O)(=O)c3ccc(Br)s3)sc2c1	inactive	–
CCOC(=O)C1=C(C)C(c2ccc(OC)cc2OC)NC(=O)N1 (centres undefined)	inconclusive [activator, single point]	–
Cc1ccnc2nc(C(=O)OCCOc3ccccc3)nn12	inconclusive [activator, single point]	–
Cn1cc(S(=O)(=O)N2CCCCC2)cc1C(=O)N1CCN(c2ccc(F)cc2)CC1	inactive	–
Cc1ccc(C)c(-c2csc(-c3c(N)c(C(=O)c4ccc5c(c4)OCO5)n4ccccc34)n2)c1	inactive	–
O=C1C2C3C=CC(C3)C2C(=O)N1CNc1ccc(O)cc1 (centres undefined)	inconclusive [activator, single point]	–
CN(CP(=O)(O)CN(C)S(C)(=O)=O)S(C)(=O)=O	inconclusive [activator, single point]	–
COc1ccc(-c2cc(=O)c3c(OC)c(OC)c(OC)c(OC)c3o2)cc1	inconclusive [activator, single point]	–
CCN(CC)CCn1c(=N)n(CCOc2ccccc2Cl)c2ccccc21	inactive	–
O=C(NCC(c1cccnc1)N1CCOCC1)C(=O)Nc1ccc(Cl)cc1 (centres undefined)	–	inconclusive: 111% [activator]
CCC(C)Sc1nc2c([nH]c3ccccc32)c(=O)n1C (centres undefined)	–	inconclusive: 82.7% [activator]
Fc1ccc(Nc2nc(-c3cccnc3)nc3ccccc23)cc1	inactive	–
CCCCOC(=O)CSc1nc2c(cc1C#N)C(=O)CC(C)(C)C2	inconclusive [activator, single point]	–
CCc1ccc(NC(=O)C2CCCN(S(=O)(=O)c3cccc4cccnc34)C2)cc1 (centres undefined)	–	inconclusive: 46.7% [activator]
CCC(Sc1nnnn1-c1ccccc1)C(=O)NC(C)c1ccccc1 (centres undefined)	inconclusive [activator, single point]	–
CCC1CCCCN1C(=O)Cn1c(C(=O)OC)cc2sc(Cl)cc21 (centres undefined)	inactive	–

Compound	Potency	activity change, positive = activation
Cc1nc(N2CCN(C(=O)c3ccco3)CC2)c2oc3ccccc3c2n1	inactive	–
CN(CC(=O)NCc1ccccc1Cl)S(=O)(=O)c1ccc2c(c1)c(=O)n(C)c(=O)n2C	–	inconclusive: 45.6% [activator]
Nc1nc2c(c(=O)[nH]1)CN(CCCN1CCOCC1)CN2	inconclusive [activator, single point]	–
CC(=O)c1ccc(Oc2cc(C)nc(-n3nc(C)cc3C)n2)cc1	inconclusive [activator, partial curve]	–
CC(=O)/C(=C\c1ccccc1)CC(=O)O	inconclusive [activator, single point]	–
Cc1noc(C)c1-c1nccc(Nc2ccc(F)cc2)n1	inconclusive [activator, single point]	–
COc1ccc(-n2c(=O)cnc3cnc(N4CCOCC4)nc32)cc1	inconclusive [activator, single point]	–
CC(C)OCCCn1c(=S)[nH]c2ccc(N3CCOCC3)cc2c1=O	inconclusive [activator, single point]	–
CC(C)OCCCNC(=O)c1cc2c(-c3ccc(Cl)cc3)nn(C)c2s1	inactive	–
CC(C(=O)NCc1ccccc1F)n1ccc2cc(S(=O)(=O)N3CCCC3)ccc21 (centres undefined)	–	inconclusive: 76.8% [activator]
NC12CC3CC(C1)CC(CO)(C3)O2	inconclusive [activator, single point]	–
COc1ccc2cc(-c3nc4ccc(C(=O)O)cc4[nH]3)c(=O)oc2c1	inactive	–
N#Cc1cccc(-n2nnnc2-c2ccc3c(c2)OCO3)c1	inconclusive [activator, single point]	–
CC1=C(C(=O)OCC2CCCO2)C(c2ccccc2OC(C)C)C2=C(CC(c3ccco3)CC2=O)N1 (centres undefined)	inconclusive [activator, single point]	–
CCc1nnc(SCC(=O)Nc2ccc(F)cc2F)c2cc3sc(C)cc3n12	–	inconclusive: 37.4% [activator]
CC1CCc2nc3ncn(Cc4ccccc4F)c(=O)c3cc2C1 (centres undefined)	–	inconclusive: 73.1% [activator]
COc1ccc(Cl)cc1NC(=O)Cn1c(=O)n(CCC(=O)NCc2ccc3c(c2)OCO3)c(=O)c2ccccc21	inactive	–
Clc1ccc(OCc2nnc(SCc3nc4ccccc4[nH]3)n2Cc2ccco2)cc1	inactive	–
COc1ccc(Cn2c(=O)c3oc4ccccc4c3n(Cc3cccc(C)c3)c2=O)cc1	–	inconclusive: 47.3% [activator]
O=C(c1cccnc1)N1CCN(CCCc2ccccc2)CC1	inconclusive [activator, single point]	–
Cc1ccc(-n2nnc(-c3nsc(NC(=O)c4cccc(Cl)c4)n3)c2C)cc1C	inactive	–
c1ccc(Nc2nc(-c3ccc4c(c3)OCO4)nc3ccccc23)cc1	inactive	–
CCN(Cc1ccccc1)Cc1c(O)ccc2c(=O)c(-c3ccccc3)c(C(F)(F)F)oc12	–	inconclusive: 34.7% [activator]
Clc1ccc(Sc2oc(/C=N/n3cnnc3)cc2Br)cc1	inactive	–
O=c1c(-c2ccc(Cl)cc2)nc2cnc(N3CCOCC3)nc2n1-c1ccccc1	inconclusive [activator, single point]	–

Compound	Potency	activity change, positive = activation
Cn1c2c(c3ccccc31)CCSC2=O	inconclusive [activator, single point]	–
Cc1cccc(Cc2c(C)nc3nc(SCc4ccccc4C)nn3c2C)c1	inactive	–
COc1ccc(CC(=O)Nc2c3c(nn2-c2ccccc2C)CS(=O)C3)cc1 (centres undefined)	inconclusive [activator, full curve, poor fit]	–
O=C(CCn1ccc2cc(S(=O)(=O)N3CCCC3)ccc21)NCc1cccc(Br)c1	–	inconclusive: 32.4% [activator]
Cc1ccc(C)c(N2CCN(c3cc(C)nc4c(-c5ccc(Cl)cc5)c(C)nn34)CC2)c1	–	inconclusive: 35.7% [activator]
CCc1nn(CC(=O)NC(C)c2ccccc2)c(=O)c2cc3sccc3n12 (centres undefined)	–	inconclusive: 56.8% [activator]
O=c1c(-c2ccccc2)nc2cncnc2n1-c1ccccc1	inconclusive [activator, single point]	–
Cc1ccc(CCNC(=O)c2c(C)oc3ncnc(N4CCOCC4)c23)cc1	–	inconclusive: 53.4% [activator]
COc1cc(OC)c(NC(=O)C2=C(C)C(=O)OC23CCCCC3)cc1Cl	–	inconclusive: 35.5% [activator]
COc1ccc(-c2nnc3ccc(SC)nn23)cc1	inconclusive [activator, single point]	–
CN(C)c1ncnc2ccc(-c3cccnc3)cc12	inconclusive [activator, single point]	–
COc1ccc(N2CCN(C(CNC(=O)c3c(F)cccc3F)c3ccc4c(c3)OCO4)CC2)cc1 (centres undefined)	–	inconclusive: 35.8% [activator]
CCn1cc(C(=O)OCc2ccccc2)c(=O)c2ccc(C)nc21	inactive	–
COc1cccc(Cn2c(=O)c(-c3cccc(C#N)c3)nc3cnc(N4CCN(C)CC4)nc32)c1	inconclusive [activator, partial curve]	–
O=C1C(c2ccncc2)=C(O)c2ccccc21	inconclusive [activator, partial curve]	–
O=C(CN1C(=O)C2(SCC(=O)N2c2ccccc2)c2ccccc21)NCc1ccccc1 (centres undefined)	–	inconclusive: 33.9% [activator]
O=C(c1cc2ccc3cccnc3c2[nH]1)N1CCN(c2ccc(Cl)cc2)CC1	inactive	–
COc1cccc(-c2cncnc2NCc2ccccc2OC)c1	inconclusive [activator, single point]	–
O=C(O)CSc1nnc(C2CC2)n1-c1ccccc1	inconclusive [activator, full curve, poor fit]	–
O=C(Cn1c(=O)c2ccccc2n(CC(=O)Nc2ccc(F)cc2)c1=O)NCCc1ccccc1	inactive	–
O=C(Nc1ccc2nc3n(c(=O)c2c1)CCCCC3)c1ccccn1	inactive	–
CCOc1ccc(-n2c(CC)nc3c(cnn3-c3ccc(Cl)cc3)c2=O)cc1	–	inconclusive: 36.5% [activator]
Cn1cc(-c2cc3n(n2)CCC(=O)N3CC(=O)O)c2ccccc21	–	inconclusive: 33% [activator]
Cc1nc(NC2CCCCC2)c2nc(-c3ccccc3)n(CCN3CCCCC3)c2n1	inactive	–
